# Laboratory results published in the supplement of paper PMC8728848.
# Some of the results follow.
# Legend:
# Assay in all cases: glycan array binding signal (z-score within array); higher = stronger binding
# Details in all cases: glycan notation: IUPAC condensed, linker removed
# [1] = molecular target: Fuc(a1-2)[GalNAc(a1-3)]Gal(b1-3)GlcNAc(b1-3)GalNAc
# In short: (§1)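 The binding signal is a Z-score computed within each array and averaged over linkers. Arrays of the same protein sequence at different concentrations or buffers were also averaged together. Data originate from 3228 arrays in the Consortium for Functional Glycomics database, kept only where the protein sequence was available.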
# [2] = molecular target: Fuc(a1-2)[GalNAc(a1-3)]Gal(b1-3)GlcNAc(b1-6)GalNAc
# In short: as §1
# [3] = molecular target: Fuc(a1-2)[GalNAc(a1-3)]Gal(b1-4)Glc
# In short: as §1
# [4] = molecular target: Fuc(a1-2)[GalNAc(a1-3)]Gal(b1-4)GlcNAc
# In short: as §1
# [5] = molecular target: Fuc(a1-2)[GalNAc(a1-3)]Gal(b1-4)GlcNAc(b1-2)Man
# In short: as §1
# [6] = molecular target: Fuc(a1-2)[GalNAc(a1-3)]Gal(b1-4)GlcNAc(b1-2)Man(a1-3)[Fuc(a1-2)[GalNAc(a1-3)]Gal(b1-4)GlcNAc(b1-2)Man(a1-6)]Man(b1-4)GlcNAc(b1-4)GlcNAc
# In short: as §1
# [7] = molecular target: Fuc(a1-2)[GalNAc(a1-3)]Gal(b1-4)GlcNAc(b1-2)Man(a1-3)[Fuc(a1-2)[GalNAc(a1-3)]Gal(b1-4)GlcNAc(b1-2)Man(a1-6)]Man(b1-4)GlcNAc(b1-4)[Fuc(a1-6)]GlcNAc
# In short: as §1
# [8] = molecular target: Fuc(a1-2)[GalNAc(a1-3)]Gal(b1-4)GlcNAc(b1-3)Gal(b1-4)GlcNAc
# In short: as §1
# [9] = molecular target: Fuc(a1-2)[GalNAc(a1-3)]Gal(b1-4)GlcNAc(b1-3)Gal(b1-4)GlcNAc(b1-3)Gal(b1-4)GlcNAc
# In short: as §1
# [10] = molecular target: Fuc(a1-2)[GalNAc(a1-3)]Gal(b1-4)GlcNAc(b1-3)GalNAc
# In short: as §1
# [11] = molecular target: Fuc(a1-2)[GalNAc(a1-3)]Gal(b1-4)GlcNAc(b1-3)[Fuc(a1-2)[GalNAc(a1-3)]Gal(b1-4)GlcNAc(b1-6)]GalNAc
# In short: as §1
# [12] = molecular target: Fuc(a1-2)[GalNAc(a1-3)]Gal(b1-4)GlcNAc(b1-6)GalNAc
# In short: as §1
# [13] = molecular target: Fuc(a1-2)[GalNAc(a1-3)]Gal(b1-4)[Fuc(a1-3)]GlcNAc
# In short: as §1
# [14] = molecular target: Fuc(a1-2)[GalNAc(a1-3)]Gal(b1-4)[Fuc(a1-3)]GlcNAc(b1-3)GalNAc
# In short: as §1
# [15] = molecular target: Fuc(a1-2)[GalNAc(a1-4)]Gal(b1-4)GlcNAc
# In short: as §1
# [16] = molecular target: Fuc(a1-2)[GalNAc(b1-3)]Gal
# In short: as §1
# Fuc(a1-3)GlcNAc = molecular target: Fuc(a1-3)GlcNAc
# In short: as §1
# [17] = molecular target: Fuc(a1-3)[Gal(b1-4)]Glc6S
# In short: as §1
# [18] = molecular target: Fuc(a1-3)[Gal(b1-4)]GlcNAc
# In short: as §1
# [19] = molecular target: Fuc(a1-3)[Gal(b1-4)]GlcNAc(b1-2)Man
# In short: as §1
# [20] = molecular target: Fuc(a1-3)[Gal(b1-4)]GlcNAc(b1-2)Man(a1-3)[Fuc(a1-3)[Gal(b1-4)]GlcNAc(b1-2)Man(a1-6)]Man(b1-4)GlcNAc(b1-4)GlcNAc
# In short: as §1
# [21] = molecular target: Fuc(a1-3)[Gal(b1-4)]GlcNAc(b1-2)Man(a1-3)[Fuc(a1-3)[Gal(b1-4)]GlcNAc(b1-2)Man(a1-6)]Man(b1-4)GlcNAc(b1-4)[Fuc(a1-6)]GlcNAc
# In short: as §1
# [22] = molecular target: Fuc(a1-3)[Gal(b1-4)]GlcNAc(b1-3)Gal(b1-3)[Fuc(a1-4)]GlcNAc
# In short: as §1
# [23] = molecular target: Fuc(a1-3)[Gal(b1-4)]GlcNAc(b1-3)Gal(b1-4)[Fuc(a1-3)]GlcNAc
# In short: as §1
# [24] = molecular target: Fuc(a1-3)[Gal(b1-4)]GlcNAc(b1-3)Gal(b1-4)[Fuc(a1-3)]GlcNAc(b1-3)Gal(b1-4)[Fuc(a1-3)]GlcNAc
# In short: as §1
# [25] = molecular target: Fuc(a1-3)[Gal(b1-4)]GlcNAc(b1-3)GalNAc
# In short: as §1
# [26] = molecular target: Fuc(a1-3)[Gal(b1-4)]GlcNAc(b1-6)GalNAc
# In short: as §1
# [27] = molecular target: Fuc(a1-3)[Gal(b1-4)]GlcNAc(b1-6)[Gal(b1-3)GlcNAc(b1-3)]Gal(b1-4)Glc
# In short: as §1
# [28] = molecular target: Fuc(a1-3)[Gal(b1-4)]GlcNAc6S
# In short: as §1
# [29] = molecular target: Fuc(a1-3)[Gal3S(b1-4)]Glc
# In short: as §1
# [30] = molecular target: Fuc(a1-3)[Gal3S(b1-4)]GlcNAc
# In short: as §1
# [31] = molecular target: Fuc(a1-3)[Gal3S(b1-4)]GlcNAc6S
# In short: as §1
# [32] = molecular target: Fuc(a1-3)[GalNAc(b1-4)]GlcNAc
# In short: as §1
# [33] = molecular target: Fuc(a1-3)[GalNAc(b1-4)]GlcNAc6S
# In short: as §1
# Fuc(a1-4)GlcNAc = molecular target: Fuc(a1-4)GlcNAc
# In short: as §1
# Fuc(b1-3)GlcNAc = molecular target: Fuc(b1-3)GlcNAc
# In short: as §1
# Gal(a1-2)Gal = molecular target: Gal(a1-2)Gal
# In short: as §1
# Gal(a1-3)Gal = molecular target: Gal(a1-3)Gal
# In short: as §1
# Gal(a1-3)Gal(b1-3)GlcNAc = molecular target: Gal(a1-3)Gal(b1-3)GlcNAc
# In short: as §1
# [34] = molecular target: Gal(a1-3)Gal(b1-3)GlcNAc(b1-2)Man
# In short: as §1
# [35] = molecular target: Gal(a1-3)Gal(b1-3)GlcNAc(b1-2)Man(a1-3)[Gal(a1-3)Gal(b1-3)GlcNAc(b1-2)Man(a1-6)]Man(b1-4)GlcNAc(b1-4)GlcNAc
# In short: as §1
# [36] = molecular target: Gal(a1-3)Gal(b1-3)GlcNAc(b1-3)GalNAc
# In short: as §1
# [37] = molecular target: Gal(a1-3)Gal(b1-3)GlcNAc(b1-6)GalNAc
# In short: as §1
# [38] = molecular target: Gal(a1-3)Gal(b1-3)[Fuc(a1-4)]GlcNAc(b1-2)Man(a1-3)[Gal(a1-3)Gal(b1-3)[Fuc(a1-4)]GlcNAc(b1-2)Man(a1-6)]Man(b1-4)GlcNAc(b1-4)GlcNAc
# In short: as §1
# Gal(a1-3)Gal(b1-4)Glc = molecular target: Gal(a1-3)Gal(b1-4)Glc
# In short: as §1
binder,measurement,setting,value
"Sebin2 (Coprinopsis cinerea), A8PE78 (protein) MTTPFYAYCHNVQDDNTWRLGLVFANRSTADEWWRAISEATSSIPITKSITRVTPQYYTHDIRVWNMYNFFVDGNIKSISDKFRGRLFITLEYDRSGRGVSVFPPLHIVDHVSGNWYYIRSKTAPHLFWFYDETRNAIYASKEKRTRFKVSIRNPSPQTPKDAIMINSDDVVIHIKESLYVGVDSYLGHIIPTRAYRTFKFGELEGGAIAGIEVAENAEERCSSTFDGASLYFVGPDSSSPGEPWELV",glycan array binding signal (z-score),[1],-0.22
same,glycan array binding signal (z-score),[2],-0.539
same,glycan array binding signal (z-score),[3],-0.045
same,glycan array binding signal (z-score),[4],-0.363
same,glycan array binding signal (z-score),[5],0.076
same,glycan array binding signal (z-score),[6],0.273
same,glycan array binding signal (z-score),[7],-0.041
same,glycan array binding signal (z-score),[8],-0.255
same,glycan array binding signal (z-score),[9],0.11
same,glycan array binding signal (z-score),[10],-0.265
same,glycan array binding signal (z-score),[11],0.229
same,glycan array binding signal (z-score),[12],-0.33
same,glycan array binding signal (z-score),[13],-0.453
same,glycan array binding signal (z-score),[14],0.594
same,glycan array binding signal (z-score),[15],0.018
same,glycan array binding signal (z-score),[16],-0.048
same,glycan array binding signal (z-score),Fuc(a1-3)GlcNAc,-0.336
same,glycan array binding signal (z-score),[17],1.49
same,glycan array binding signal (z-score),[18],-0.316
same,glycan array binding signal (z-score),[19],-0.314
same,glycan array binding signal (z-score),[20],-0.363
same,glycan array binding signal (z-score),[21],0.306
same,glycan array binding signal (z-score),[22],-0.279
same,glycan array binding signal (z-score),[23],-0.062
same,glycan array binding signal (z-score),[24],0.118
same,glycan array binding signal (z-score),[25],0.281
same,glycan array binding signal (z-score),[26],-0.289
same,glycan array binding signal (z-score),[27],-0.501
same,glycan array binding signal (z-score),[28],-0.151
same,glycan array binding signal (z-score),[29],-0.212
same,glycan array binding signal (z-score),[30],-0.212
same,glycan array binding signal (z-score),[31],-0.319
same,glycan array binding signal (z-score),[32],-0.118
same,glycan array binding signal (z-score),[33],0.789
same,glycan array binding signal (z-score),Fuc(a1-4)GlcNAc,4.58
same,glycan array binding signal (z-score),Fuc(b1-3)GlcNAc,-0.189
same,glycan array binding signal (z-score),Gal(a1-2)Gal,-0.294
same,glycan array binding signal (z-score),Gal(a1-3)Gal,0.463
same,glycan array binding signal (z-score),Gal(a1-3)Gal(b1-3)GlcNAc,1.62
same,glycan array binding signal (z-score),[34],0.448
same,glycan array binding signal (z-score),[35],0.377
same,glycan array binding signal (z-score),[36],0.114
same,glycan array binding signal (z-score),[37],-0.001
same,glycan array binding signal (z-score),[38],0.027
same,glycan array binding signal (z-score),Gal(a1-3)Gal(b1-4)Glc,0.021
